Assay results: patent publication US20260124217A1 (priority 2024, published 2026)

Experiments:
[1] = system: E. coli MegaX expressing Tet(X7); format: cell-based
[2] = system: E. coli MegaX expressing Tet(50); format: cell-based

SMILES: Cc1c2c(c(O)c3c(O)cccc13)C(=O)[C@]1(O)C(=O)C(C(N)=O)=C(O)[C@@H](N(C)C)[C@@H]1C2 [aTC, anhydrotetracycline]
- concentration giving complete inhibition of bacterial growth [1]: 32 µg/mL
- concentration giving complete inhibition of bacterial growth [2]: 8 µg/mL

SMILES: Cc1c2c(c(O)c3c(O)c(NC(=O)c4ccc([N+](=O)[O-])cc4)ccc13)C(=O)[C@]1(O)C(=O)C(C(N)=O)=C(O)[C@@H](N(C)C)[C@@H]1C2 [compound 14, (4S,4aS,12aS)-9-(4-nitrobenzamido)-4-(dimethylamino)-3,10,11,12a-tetrahydroxy-6-methyl-1,12-dioxo-1,4,4a,5,12,12a-hexahydrotetracene-2-carboxamide]
- concentration giving significantly lower growth rate ([1]; TC fixed at 16 μg/mL, Tet(X7) strain, vs no inhibitor): 2 µg/mL
